Measurements taken from PubChem BioAssay AID588855 (National Center for Advancing Translational Sciences (NCATS), 2011).
Hit rate of the full screen: of about 410,000 compounds, about 5,000 (1.2%) were called active. Inconclusive means that the source gave no clear call. Such entries were picked first, then a sample of the others. Calls come from the whole dose curve; as a rule, active = well fitted inhibition curve with a large enough effect; inconclusive = small, poorly fitted or top-dose-only effect; inactive = no such curve, though single readings can be large or run the other way. A potency beside an inconclusive call is a rough fit, not a confirmed value.

assay: qHTS for Inhibitors of TGF-b; details: HepG2 CAGA-GFP TGF-b/SMAD3 reporter, GFP fluorescence, 18 h, TGF-beta stimulated, 500 pg/mL final; series mostly up to 46.1 µM; note: nearly all actives have a fitted effect of over 65% in size
Summary of the method: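 TGF-beta reporter screen: HEPG2 CAGA-GFP, 1% FBS, 500 pg/mL TGF-beta final, 18 h; per-cell GFP summed per well; curves fitted and categorized by class.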
Potency is the fitted concentration of half-maximal effect; tags give direction and shape of the fitted curve.

Row | SMILES | Potency
1 | OC[C@H]1O[C@@H](c2nc(-c3ccc4[nH]ccc4c3)no2)[C@H](O)[C@@H](O)[C@H]1O | inactive
2 | CCN1CCN(c2nc(Nc3ccccc3)nc(N)c2[N+](=O)[O-])CC1 | inconclusive: 6.31 µM [inhibitor, single point]
3 | COc1ccccc1-c1cnc(C(O)c2ccc(C(C)(C)C)cc2)[nH]1 (stereo not drawn) | inconclusive: 20 µM [inhibitor, single point]
4 | CCC(CC)C(=O)N1CCc2cc(OC)c(OC)cc2C1COc1ccc2c(C)cc(=O)oc2c1 (stereo not drawn) | inconclusive: 0.631 µM [inhibitor, full curve]
5 | COc1ccccc1-c1cc(NC(C)=O)c2ncc(-c3ccc(F)cc3)n2c1 | inconclusive: 14.1 µM [inhibitor, single point]
6 | O=C(c1cc(S(=O)(=O)N2CCCC2)c[nH]1)N1CCN(c2cccc(Cl)c2)CC1 | inconclusive: 35.5 µM [inhibitor, single point]
7 | CC(=O)c1cccc(NC(=O)CSc2ncc(C(=O)Nc3ccccc3)c(=O)n2C)c1 | inactive
8 | CCOc1ccccc1N(CC)C(=O)Cn1ncc2c1-c1ccccc1OC2 | inconclusive: 11.2 µM [inhibitor, single point]
9 | Cc1cc(C)n(-c2nnc(C)n2/N=C/c2ccccc2OCc2ccccc2Cl)n1 | inconclusive: 4.47 µM [inhibitor, full curve, poor fit]
10 | COc1cc2c(cc1OC)[C@@H](NC(=O)CCc1ccccc1)[C@H](O)C2 | inactive
11 | CN1CCN(C(=O)c2ccc3nc(-c4ccccc4)c(-c4ccccc4)nc3c2)CC1 | inconclusive: 3.98 µM [inhibitor, partial curve, poor fit]
12 | COc1ccc(CNC(=O)c2cnc3sc4cc(OC)ccc4n3c2=O)cc1 | inconclusive: 15.8 µM [inhibitor, single point]
13 | COC(=O)c1c(C(=O)OC)c2cc(C(=O)c3ccccc3)ccn2c1Cl | inconclusive: 5.01 µM [inhibitor, full curve, poor fit]
14 | O=C(Cn1[nH]c(=O)c2ccccc2c1=O)Nc1cccc(S(=O)(=O)N2CCCCCC2)c1 | inactive
15 | COc1cc(NS(=O)(=O)c2ccc(NC(=O)COc3ccc(Cl)cc3Cl)cc2)nc(OC)n1 | inconclusive: 10 µM [inhibitor, single point]
16 | CCCc1cc(NCc2ccccn2)n2nc(C)c(-c3ccccc3)c2n1 | inconclusive: 15.8 µM [inhibitor, partial curve, poor fit]
17 | O=C(CCNS(=O)(=O)c1ccc(Br)s1)Nc1ccc(Br)cc1 | inconclusive: 35.5 µM [inhibitor, single point]
18 | CCc1cc2cc(C(=O)N3CCN(Cc4ccccc4)CC3)sc2s1 | inconclusive: 0.891 µM [inhibitor, full curve, poor fit]
19 | N#C/C(=N\Nc1ccc(Cl)cc1)C(=O)c1ccccc1 | inconclusive: 2 µM [inhibitor, partial curve, poor fit]
20 | COc1cccc(NC(=S)N(CCCN2CCOCC2)C(C)c2cc3cccc(OC)c3o2)c1 (stereo not drawn) | inconclusive: 7.08 µM [inhibitor, partial curve, poor fit]
21 | COC(=O)c1[nH]c2ccccc2c1NC(=O)c1c(F)cccc1F | inactive

Row | SMILES | Potency
22 | COc1ccc(CC(=O)OCC(=O)N2CCN(S(=O)(=O)c3ccc(C)cc3C)CC2)cc1 | inconclusive: 0.251 µM [inhibitor, full curve, poor fit]
23 | CN1C(=O)/C(=C\c2ccccc2F)Sc2ccc(C(=O)NC3CCN(Cc4ccccc4)CC3)cc21 | inconclusive: 28.2 µM [inhibitor, single point]
24 | c1ccc(OCCCCn2cnc3ccccc32)cc1 | inconclusive: 5.62 µM [inhibitor, single point]
25 | COc1ccc(C(=O)NC(Nc2ccc(C)cc2)C(Cl)(Cl)Cl)cc1 (stereo not drawn) | active: 11.2 µM
26 | Cc1ccc(NC(=O)C2=C(c3ccccc3)S(=O)(=O)CCS2(=O)=O)cc1 | active: 3.55 µM
27 | O=C(c1[nH]c(C(F)(F)F)nc1-c1ccccc1)N1CCN(c2ncc(C(F)(F)F)cc2Cl)CC1 | inconclusive: 22.4 µM [inhibitor, single point]
28 | CCCCn1c(N)c(N(CCC(C)C)C(=O)c2ccc(-c3ccc([N+](=O)[O-])cc3)o2)c(=O)[nH]c1=O | inactive
29 | Cn1c(NCCN2CCCC2)nc2cc(-c3cccc(C(F)(F)F)c3)sc2c1=O | inconclusive: 35.5 µM [inhibitor, single point]
30 | CCN(CC)CCn1c(=S)[nH]c2ccccc2c1=O | inconclusive: 0.562 µM [inhibitor, full curve, poor fit]
31 | COc1cccc(NC(=O)c2csc3c2CCCCC3)c1 | inconclusive: 35.5 µM [inhibitor, single point]
32 | O=C(N/N=C/c1ccc(Sc2nc3ccccc3[nH]2)o1)c1ccncc1 | inconclusive: 6.31 µM [inhibitor, full curve, poor fit]
33 | CCCn1nnc(NC(=S)NC(=O)Cc2ccccc2)n1 | inconclusive: 7.94 µM [inhibitor, partial curve, poor fit]
34 | CN(CC(=O)Nc1cccc(F)c1)C(=O)CN1C(=O)NC2(CCCCC2)C1=O | inactive
35 | CC(=O)Oc1ccccc1N(C(C)=O)S(=O)(=O)c1ccc2ccccc2c1 | inactive
36 | Cc1ccc(S(=O)(=O)N2C[C@H]3n4c(=O)ccc(=O)n4C[C@H](OC(=O)NCc4ccccc4F)[C@@]3(O)C2)cc1 | inconclusive: 25.1 µM [inhibitor, single point]
37 | CCOC(=O)N(C)c1c(CC)nc2c(OCc3cc(Cl)cc(Cl)c3)cccn12 | inconclusive: 20 µM [inhibitor, single point]
38 | O=C(NCc1ccccc1Cl)c1cc(-c2ccccc2)n[nH]1 | inactive
39 | CCOc1ccc(-n2c(SCC(=O)Nc3ccc(Br)cc3)nc3n[nH]c(C)c3c2=N)cc1 | inconclusive: 8.91 µM [inhibitor, partial curve, poor fit]
40 | O=C(CS(=O)(=O)c1nc(-c2ccc(Cl)cc2)cn1-c1ccccc1)Nc1cccc(Cl)c1 | active: 10 µM
41 | Cc1cc2cc(CNC(=S)NC3CCCCC3)ccc2[nH]1 | inconclusive: 20 µM [inhibitor, single point]
42 | CC(C)(C)OC[C@H](NC(=O)c1[nH]cnc1C(=O)Nc1ccccc1F)C(=O)OC(C)(C)C | inconclusive: 22.4 µM [inhibitor, single point]

Row | SMILES | Potency
43 | COc1ccc(Cl)cc1-n1c(C)cc(C(=O)O)c1C | inconclusive: 3.98 µM [inhibitor, full curve, poor fit]
44 | O=C1C(=O)N(Cc2cccc([N+](=O)[O-])c2)c2ccccc21 | inconclusive: 35.5 µM [inhibitor, single point]
45 | COc1ccc(C2/C=C\CN(S(=O)(=O)CC34CCC(CC3=O)C4(C)C)CC(=O)N2Cc2ccc(F)cc2)cc1 (stereo not drawn) | inactive
46 | Cc1cc(O)c(C(C)C)cc1N=Cc1ccc([N+](=O)[O-])cc1 | inconclusive: 35.5 µM [inhibitor, single point]
47 | CCOC(=O)C1=C(c2ccccc2)c2ccccc2N(S(=O)(=O)C(F)(F)F)C1C(=O)OCC (stereo not drawn) | inconclusive: 35.5 µM [inhibitor, single point]
48 | CCN(C(=O)c1cc2c(s1)-c1ccccc1OC2)c1cc(OC)ccc1OC | inconclusive: 28.2 µM [inhibitor, single point]
49 | O=C(C[C@H]1C[C@H](C(=O)N2CCCCC2)[C@@]2(CCc3ccccc3)c3[nH]c4cc(-c5ccco5)ccc4c3CCN2C1=O)NCCN1CCOCC1 | inconclusive: 22.4 µM [inhibitor, single point]
50 | Cc1cc(NC(=O)CSc2nc3c(cc2C#N)CCCC3)no1 | inactive
51 | CN(C)C(=O)c1ccc(NC(=O)COc2cccc3c2OC(C)(C)C3)cc1 | inconclusive: 35.5 µM [inhibitor, single point]
52 | Cc1cc(N2CCCC2)nc2ccc(NC(=S)NCCCN3CCC(C)CC3)cc12 | inconclusive: 35.5 µM [inhibitor, single point]
53 | COc1ccc(-c2nc(CSCC(=O)NCCc3ccc(OC)c(OC)c3)c(C)o2)cc1 | inconclusive: 15.8 µM [inhibitor, single point]
54 | CCc1nn2c(=O)c(S(=O)(=O)Nc3ccc(C)cc3C)c(C)nc2s1 | inconclusive: 35.5 µM [inhibitor, single point]
55 | Cc1sc(NC(=O)C2c3ccccc3Oc3ccccc32)c(C(=O)OC(C)C)c1C | inactive
56 | COc1ccc(C(=O)OCCN2CCOCC2)cc1 | inconclusive: 0.447 µM [inhibitor, partial curve, poor fit]
57 | Cc1ccc(Cc2c(-c3ccc(C#N)cc3)nc3c(C)cc(Br)cn23)cc1 | inactive
58 | Oc1ccc(/C=N/NC(=S)NCCN2CCOCC2)c(O)c1 | inactive
59 | COc1ccc(NC(=O)CS(=O)(=O)Cc2ccccc2)c([N+](=O)[O-])c1 | inactive
60 | Cc1c(C(=O)N2CCCC2)oc2c1-c1nn(CC(=O)NCc3ccccc3F)cc1CC2 | inconclusive: 17.8 µM [inhibitor, single point]
61 | CCc1nnc(NC(=O)CN2CCN(Cc3ccc(C)cc3)CC2)s1 | inconclusive: 8.91 µM [inhibitor, partial curve, poor fit]
62 | Cc1ccc(/C=C/C(=O)NC2CCCCCCC2)o1 | inconclusive: 4.47 µM [inhibitor, full curve, poor fit]
63 | CC(=O)Nc1ccc(SC[C@H](CC(C)C)N2CCN(CC(C)C)CCC2=O)cc1 | inconclusive: 4.47 µM [inhibitor, full curve, poor fit]
